Results: PubChem BioAssay AID1345082 (National Center for Advancing Translational Sciences (NCATS), 2018)
The whole screen tested about 94,000 compounds, of which about 4,000 (4.3%) were called active. Inconclusive results, whose numbers are uncertain, are shown with a selection of clear calls. The call rests on the fitted dose curve; in most records, active means well fitted inhibition curve with a large enough effect; inconclusive means small, poorly fitted or top-dose-only effect; inactive means no such curve, though single readings can be large or run the other way. Where the call is inconclusive, the potency comes from a doubtful curve fit.
Potency means the concentration at half of the fitted maximal effect; tags describe the fitted curve by direction and shape.

Assay: Cytotoxic Profiling in NIH 3T3 Cell Line of Diverse Libraries Using Quantitative High-Throughput Screening; further: nearly all actives have a fitted effect of over 55% in size
Settings: NIH 3T3 viability, CellTiter-Glo ATP luminescence, 48-72 h; series mostly up to 96.7 µM
Summary of the method: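 NIH 3T3 cells at 400 cells/well received 23 nL of compound by pintool and were incubated 48 or 72 h at 37 °C. Viability was read as ATP-coupled CellTiter-Glo luminescence.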
With `CC(NC(=O)c1ccc2c(c1)OCO2)C(=O)N1CCN(c2ccccn2)CC1` (stereo not given) the Potency was inconclusive: 70.8 µM [inhibitor, partial curve, poor fit]. For `CC1(C)[C@H](Cc2cc(-c3ccccc3)on2)C[C@@H]1NS(=O)(=O)c1ccccc1`, the Potency was inconclusive: 39.8 µM [inhibitor, full curve]. In the case of `COc1cc(C(=O)N2CCC(Cc3nc(-c4ccccc4)no3)CC2)cc(OC)c1OC`, the Potency is reported as inconclusive: 17.8 µM [inhibitor, full curve]. In the case of `CCOC(=O)C1CCCN(C(=O)c2ccc3oc(-c4cccnc4C)nc3c2)C1` (stereo not given), the Potency is reported as inconclusive: 25.1 µM [inhibitor, partial curve]. In the case of `O=C(N[C@H]1[C@H](O)[C@H](O)C[C@@H]1c1ccc(C(F)(F)F)cc1)c1ccc2c(c1)OCCO2`, the Potency is reported as active: 100 µM. For `CCCCCC(=O)Nc1nc2c(s1)C[C@@H]1[C@](C)(CO)[C@H](O)CC[C@@]1(C)[C@@H]2CC(=O)Nc1cccc(O)c1`, the Potency was inconclusive: 50.1 µM [inhibitor, partial curve, poor fit]. For `Cn1ncc2c(C(=O)NCC(F)F)cc(-c3cccc(F)c3)nc21`, the Potency was inconclusive: 50.1 µM [inhibitor, full curve]. With `COCCNC(=O)C1CCCCN1Cc1ccc(-c2cccs2)cc1` (stereo not given) the Potency was inconclusive: 44.7 µM [inhibitor, partial curve, poor fit]. With `COc1ccc(C)cc1NC(=O)N1C[C@@H](F)C[C@H]1C(=O)N1CCCCC1` the Potency was active: 35.5 µM. For `CC1Oc2ccc(NC(=O)NCc3ccccc3)cc2CN(C2CCCc3ccccc32)C1=O` (stereo not given), the Potency was inconclusive: 12.6 µM [inhibitor, full curve]. With `CN1[C@@H](CCC(=O)NCc2cccs2)CNC(=O)[C@@H]2[C@H]1CCN2Cc1ccc(O)cc1` the Potency was “inactive”. In the case of `Cc1ccc2[nH]c(CN3CCC(c4cccc(C#N)c4)CC3)cc(=O)c2c1`, the Potency is reported as inconclusive: 79.4 µM [inhibitor, partial curve]. For `O=C(c1ccc(Cl)cc1)N1CCNc2cnc(Nc3cccc(C(F)(F)F)c3)nc2C1`, the Potency was active: 22.4 µM. For `O=S(=O)(Cc1ccccc1)Nc1cnc2c(c1)CCC2`, the Potency was “inactive”. In the case of `O=C(NCc1ccccc1F)N1C[C@@H](CN2CCCCC2)[C@@H](CO)C1`, the Potency is reported as “inactive”. For `CNC(=O)CCn1ncc2cc(OCc3ccccc3-c3ccc(OC)cc3Cl)ccc21`, the Potency was inconclusive: 50.1 µM [inhibitor, partial curve, poor fit]. For `O=C(c1ccc(Cl)cc1)N1CC2(CCN(Cc3ccc(Cl)cc3)C2)Cc2ccccc21` (stereo not given), the Potency was inconclusive: 39.8 µM [inhibitor, partial curve]. For `C=CCNC(=O)[C@@H]1Cc2cn(Cc3cccnc3)c3cccc(c23)[C@H](CC(C)C)N1`, the Potency was inconclusive: 112 µM [inhibitor, partial curve, poor fit]. In the case of `CCCCOc1ccc(C(=O)N2CCC(c3n[nH]c(=O)n3-c3ccc(C)cc3)CC2)cc1`, the Potency is reported as inconclusive: 44.7 µM [inhibitor, partial curve, poor fit]. In the case of `OC[C@@H]1O[C@H](CNCc2ccc(F)cc2)[C@H](N2CCN(c3ccccc3)CC2)[C@@H]1O`, the Potency is reported as “inactive”. In the case of `CS(=O)(=O)N1CC2(CCCN(CC3CC3)C2)Cc2ccccc21` (stereo not given), the Potency is reported as “inactive”. With `O=C(NC1CCN(c2cc(-c3ccccc3)[nH]n2)CC1)c1ccc(F)c(Cl)c1` the Potency was inconclusive: 44.7 µM [inhibitor, partial curve, poor fit]. In the case of `CCC(=O)N1Cc2ccccc2CC2(CCCCN2Cc2cccnc2)C1` (stereo not given), the Potency is reported as “inactive”. For `COCCOC1CCN(C(=O)Nc2cccc(C)c2)CC1`, the Potency was “inactive”. In the case of `O=C(NCc1ccc(F)cc1)c1ccc2nnc(-c3ccc(C(F)(F)F)cc3)n2c1`, the Potency is reported as inconclusive: 39.8 µM [inhibitor, partial curve]. With `CC(=O)Nc1ccccc1-c1c(C)nn2c1N(C(=O)Cc1ccc(Cl)cc1)CCC2` the Potency was inconclusive: 56.2 µM [inhibitor, partial curve, poor fit]. In the case of `CNC(=O)c1c(C)nc2n1CCC(Nc1ccccc1C)C2` (stereo not given), the Potency is reported as inconclusive: 89.1 µM [inhibitor, partial curve, poor fit]. For `N#Cc1ccc(C(=O)Nc2ccc([C@@H](O)[C@H]3COCC(=O)N3Cc3ccccc3F)cc2)cc1`, the Potency was “inactive”. With `COc1cccc(-c2cccc(CN3CCCC3C(=O)NCc3cccs3)c2)c1` (stereo not given) the Potency was inconclusive: 44.7 µM [inhibitor, partial curve, poor fit]. For `O=C(Cc1cccc(Cl)c1)N1CCN(c2ccc3nnc(-c4ccccc4)n3n2)CC1`, the Potency was inconclusive: 44.7 µM [inhibitor, partial curve, poor fit]. For `COc1cccc(-c2ccnc3nc(-c4ccccc4OC)nn23)c1`, the Potency was inconclusive: 56.2 µM [inhibitor, single point]. For `COc1ccccc1-c1cc(C(=O)NC(C)C)c2cnn(C)c2n1`, the Potency was “inactive”. In the case of `CC1=C[C@@H](CN(C)CCN(C)C)[C@H](C(C)C)C[C@H]1Cc1nnc(-c2ccccc2)o1`, the Potency is reported as active: 28.2 µM. In the case of `CCc1noc(-c2cn(C3CCN(C(=O)Cc4cccc(C)c4)CC3)nn2)n1`, the Potency is reported as inconclusive: 28.2 µM [inhibitor, partial curve, poor fit]. In the case of `CCCCCC(=O)N1CC(=O)N(C2Cc3ccccc3C2)CC(O)C1` (stereo not given), the Potency is reported as inconclusive: 50.1 µM [inhibitor, partial curve, poor fit]. In the case of `Cn1nccc1C(=O)N1CCCCCCNC(=O)[C@@H]2C[C@@H](c3nc(Cc4ccccc4)no3)C[C@@H]21`, the Potency is reported as inconclusive: 7.08 µM [inhibitor, full curve, poor fit]. In the case of `COc1ccc(F)cc1-c1ccc(CN2CCCCC2C(=O)NC(C)CCc2ccccc2)cc1` (stereo not given), the Potency is reported as inconclusive: 22.4 µM [inhibitor, full curve]. For `Cc1nn(-c2ccc(C(C)(C)C)cc2)c(C)c1[C@@H]1C=C[C@@H](NCc2ccco2)C1`, the Potency was inconclusive: 20 µM [inhibitor, full curve, poor fit]. For `COC[C@@H]1CN(C(=O)c2n[nH]c3ccccc23)C[C@H]1c1nc(C)no1`, the Potency was “inactive”. For `O=C(NCc1ccccn1)c1nc2sccn2c1-c1ccncc1`, the Potency was “inactive”. In the case of `O=C(NCc1cccc(F)c1)C1CC(c2ccccc2)CN(C(=O)c2ccc(F)cc2)C1` (stereo not given), the Potency is reported as inconclusive: 50.1 µM [inhibitor, partial curve, poor fit]. For `COc1ccc(-c2cc(N3CCCC(NC(=O)c4ccc(Br)o4)C3)n[nH]2)cc1` (stereo not given), the Potency was inconclusive: 50.1 µM [inhibitor, partial curve, poor fit]. In the case of `COc1ccc(C(=O)N2CCCC(C(=O)N3CCCC(c4nc5ccncc5[nH]4)C3)C2)cc1` (stereo not given), the Potency is reported as “inactive”. For `CC(C)CCC(=O)N1CCN(c2nc3c(s2)CN(C)CC3)CC1`, the Potency was “inactive”. For `COc1ccc(OCC2CN(Cc3ccccc3)[S+](=O)([O-])c3cccnc3O2)cc1` (stereo not given), the Potency was inconclusive: 17.8 µM [inhibitor, partial curve, poor fit]. For `O=c1cc(N2CCOCC2)oc2c(Nc3cccc(Cl)c3)nccc12`, the Potency was inconclusive: 79.4 µM [inhibitor, partial curve]. With `c1ccc(C2=NOC3(CCN(Cc4cccc5ccccc45)CC3)C2)cc1` the Potency was “inactive”. In the case of `CC(C)c1ccc(CC(=O)N2CCCc3ncc(C(=O)NCc4cccc(F)c4)cc32)cc1`, the Potency is reported as inconclusive: 50.1 µM [inhibitor, partial curve, poor fit]. With `Cc1cccc(C)c1N1C(C(=O)OCc2ccccc2)=C(O)c2ccccc2[S+]1(=O)[O-]` the Potency was inconclusive: 5.62 µM [inhibitor, full curve, poor fit]. In the case of `COc1cccc(-c2ccc(CN3CCCC(NC(=O)c4ccc(Cl)nc4)C3)cc2)c1` (stereo not given), the Potency is reported as active: 31.6 µM. With `CCN1C(=O)C2CC3(CCN(C(=O)CCc4c[nH]c5ccccc45)CC3)CN2C1=O` (stereo not given) the Potency was “inactive”. For `O=C(NC1CCN(c2nccc(Nc3ccccc3F)n2)CC1)c1ccccc1`, the Potency was inconclusive: 39.8 µM [inhibitor, partial curve]. With `COc1ccc(-c2noc(C(=O)O)c2[C@@H](C)NC(=O)CC(C)C)cc1` the Potency was “inactive”. With `CCc1ccc(N2CC(c3noc(-c4ccc5c(c4)OCO5)n3)CC2=O)cc1` (stereo not given) the Potency was inconclusive: 70.8 µM [inhibitor, single point]. With `Cn1nc(C2CCCN(C(=O)c3ccccc3)C2)n(C2CCCC2)c1=O` (stereo not given) the Potency was “inactive”. With `CCN1C(=O)C2CC3(CCN(C(=O)c4nn(C)c5ccccc45)CC3)CN2C1=O` (stereo not given) the Potency was inconclusive: 44.7 µM [inhibitor, partial curve]. With `COCCN1Cc2[nH]nc(-c3ccc(OC)c(OC)c3)c2CC1=O` the Potency was inconclusive: 56.2 µM [inhibitor, partial curve, poor fit]. For `Cc1cc(C)n(CCC(=O)N2CCC(c3noc(C4CC4)n3)C2)n1` (stereo not given), the Potency was “inactive”. For `O=C1Nc2ccccc2C12CN(Cc1ccccc1)C2`, the Potency was inconclusive: 89.1 µM [inhibitor, single point]. With `COc1cc(CN2CCCC23Cc2ccccc2CNC3=O)ccc1F` (stereo not given) the Potency was inconclusive: 50.1 µM [inhibitor, single point]. In the case of `Cc1cc(F)ccc1OC1CNC1`, the Potency is reported as “inactive”. In the case of `CCCN1CCC2(CCN(C(=O)c3cccc(OC)c3)CC2)Oc2ccccc21`, the Potency is reported as inconclusive: 50.1 µM [inhibitor, partial curve, poor fit]. For `O=C(C1CC1)N1CCC(C(=O)N2CCC(N3CCOC3=O)CC2)CC1`, the Potency was “inactive”. With `Cc1nc(N2CCCCC2)n(CC(=O)Nc2ccc(Br)cc2)c(=O)c1C` the Potency was inconclusive: 70.8 µM [inhibitor, single point]. With `COc1ccc(C(=O)N2CCCC3(C2)Nc2cccnc2NC3=NC2CCCC2)cc1F` (stereo not given) the Potency was inconclusive: 44.7 µM [inhibitor, partial curve, poor fit].
